# Experimental data published in the supplement of paper PMC3334620.
# Over roughly 33,000 sequences, “E-score (-0.5 to 0.5)” has its median near -0.054; the highest 2% begin near 0.35. Some of the results follow.
# Target: T1, Stb5 (UniProt P38699)
# T1 sequence: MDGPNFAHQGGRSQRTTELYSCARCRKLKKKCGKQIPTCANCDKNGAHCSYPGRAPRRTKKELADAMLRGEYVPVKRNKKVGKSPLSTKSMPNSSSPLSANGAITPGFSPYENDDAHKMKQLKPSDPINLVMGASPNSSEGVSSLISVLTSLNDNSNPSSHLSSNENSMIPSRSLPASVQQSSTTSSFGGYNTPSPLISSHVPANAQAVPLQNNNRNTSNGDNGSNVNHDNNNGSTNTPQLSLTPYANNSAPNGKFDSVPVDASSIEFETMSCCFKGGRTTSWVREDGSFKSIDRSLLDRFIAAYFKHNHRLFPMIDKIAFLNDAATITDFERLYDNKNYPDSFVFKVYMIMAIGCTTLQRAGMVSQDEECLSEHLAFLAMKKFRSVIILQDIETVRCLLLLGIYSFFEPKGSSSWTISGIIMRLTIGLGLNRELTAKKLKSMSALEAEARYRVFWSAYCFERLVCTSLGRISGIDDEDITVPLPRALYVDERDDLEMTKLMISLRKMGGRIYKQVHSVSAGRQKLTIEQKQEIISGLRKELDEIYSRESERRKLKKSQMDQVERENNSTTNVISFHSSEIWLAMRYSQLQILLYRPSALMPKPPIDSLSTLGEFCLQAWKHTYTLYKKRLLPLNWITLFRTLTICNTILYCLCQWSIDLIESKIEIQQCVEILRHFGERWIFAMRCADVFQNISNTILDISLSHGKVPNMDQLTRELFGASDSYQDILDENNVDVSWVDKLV
# Assay: PBM E-score (8-mer binding enrichment) (E-score (-0.5 to 0.5)); higher = stronger / more preferred TF binding; most listed sequences are background and not binding sites
# Conditions: protein concentration: 200 nM; construct: GST-full length
# Method in brief: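 Yeast transcription factors carrying a GST tag, as full-length proteins or DNA-binding domains, were produced by PURExpress in vitro transcription/translation. About 100-200 nM protein was applied to universal all-10-mer Agilent arrays, double-stranded by primer extension on fresh or once-stripped slides. Bound protein was detected with fluorescent anti-GST, and scans were normalised with masliner. The Universal PBM Analysis Suite gave each ungapped eight-base word, pooled with its reverse complement, an E-score, a modified Wilcoxon-Mann-Whitney statistic.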
row,Sequence,PBM E-score
1,AGCGCGCA,0.189
2,AATCCCTC,-0.179
3,CGAGCTTC,-0.0936
4,CATTTGCA,-0.0538
5,AAGTTGAA,-0.167
6,CCATACTC,-0.0212
7,ATGTCTCG,-0.136
8,AGAACCTA,-0.159
9,GCCTATGA,-0.0859
10,ACCATCTA,0.024
11,AGTTCAAG,-0.0241
12,GATGGATA,0.00277
13,TAAGGCGA,-0.135
14,ACCTTACT,0.0504
15,AACAGAGT,-0.132
16,GTACGTAA,-0.199
17,AATGCGAA,-0.0639
18,CCCAAGAA,-0.137
19,GTTATAAC,0.273
20,ATAACTCG,0.0637
21,AATCCAAT,-0.214
22,GCCATAAA,0.148
23,GGTAAACC,0.0169
24,GAGTACCA,-0.0731
25,TATCGTGA,-0.0961

row,Sequence,PBM E-score
1,AAACACCT,0.162
2,AGGTGTAC,-0.141
3,AGTTCCAT,-0.138
4,ACGCCCAC,-0.117
5,GGACTACC,0.0946
6,AAGATGTG,-0.189
7,TTAGACAA,-0.142
8,GGCGTCTA,0.0656
9,GGTTGTGA,-0.141
10,ATGACCTG,0.00256
11,AAGAAAAA,-0.183
12,GCGCTGAA,-0.06
13,CCTCAATA,-0.201
14,TCCAAAGA,-0.092
15,CTACTGAG,-0.121
16,ATTACTGA,-0.125
17,ACGCACCG,0.312
18,CGTTGCGA,-0.0103
19,GACGCAAA,-0.0121
20,GCTGACTA,-0.118
21,ACTATGCA,-0.236
22,TAGCTTAA,-0.134
23,GAAGCGCC,0.13
24,TAATATAA,0.133
25,CTGATCGC,-0.177

row,Sequence,PBM E-score
1,AATGAGTG,-0.0296
2,ATGCGGTC,0.142
3,CCCGCCCC,0.361
4,ATCACTAA,-0.0183
5,CCATGCGA,-0.115
6,AAGAATCC,-0.0879
7,CCTGCTAG,-0.0487
8,AAGGATGC,-0.244
9,AGGCATTC,-0.138
10,ACATCTCG,-0.145
11,AATTCATA,-0.0803
12,CCAGTTAA,-0.125
13,CCATAGAC,-0.194
14,GTTATCCA,-0.00256
15,AACGTAGG,-0.138
16,AACACGTA,-0.0511
17,GACCGTCC,0.21
18,CAAAGCTC,0.0303
19,CCAAACAG,-0.253
20,GAGTAGAC,-0.0296
21,GAGCGCTA,-0.106
22,AGTGACAT,-0.133
23,GCCAGGAA,-0.223
24,ACAGCAGG,0.0772
25,CATGGAAA,-0.0504

row,Sequence,PBM E-score
1,AATCATCA,-0.281
2,CCACGCGG,0.177
3,CCCATTAA,-0.226
4,GAGTGGGA,-0.18
5,GCTATTTA,0.11
6,GAAGCATA,-0.119
7,ATGACGGA,0.151
8,ACGCACTG,-0.108
9,AAAAGACA,0.0459
10,CTGTTTAC,-0.144
11,ACTCTGCC,-0.305
12,ACCGAGAA,0.116
13,CTCCTAAC,-0.2
14,ATGCGTAC,-0.0435
15,TCACAAGA,-0.114
16,CGCCGAAC,0.315
17,GTTTGCGA,0.0258
18,CGCAGCCA,-0.00206
19,ATAGCCAT,-0.301
20,AGTTGGGA,-0.221
21,GAGTGAGA,-0.0634
22,ATAGCTCG,-0.0247
23,CTACCAGA,0.0781
24,ACGACACA,-0.188
25,CGCGTTCC,0.0249

row,Sequence,PBM E-score
1,ATTCGACC,-0.061
2,TGTAATAA,0.0975
3,CTGATGAA,-0.227
4,AACCTGTC,-0.173
5,AGATTCCT,-0.202
6,GCCTATAC,-0.0694
7,GCATCTGA,-0.101
8,CAGCGAGG,-0.146
9,AAACGATT,-0.224
10,CAAGTAAG,-0.11
11,ACGAACCA,-0.0187
12,CCATTTGC,-0.031
13,CGGCAGAA,0.185
14,GGTCACGA,-0.178
15,TGGAACCA,-0.0381
16,CAAGGTGA,-0.178
17,ATAACCGA,0.229
18,GCAGTGCC,-0.0347
19,ATATGTCA,-0.104
20,AAATTAAT,0.0649
21,TGACGCCA,-0.0732
22,GCCTTAGA,0.064
23,CCTACACC,0.131
24,CATATGGA,-0.151
25,CGCCTATA,0.215

row,Sequence,PBM E-score
1,GAGCCGAC,0.201
2,ATTGCCCA,-0.198
3,CTGAGAAG,-0.16
4,ACTAACCC,-0.0396
5,GACGGAGA,0.279
6,AGTCATCG,-0.208
7,TCGTGTAA,0.0758
8,GACATAGA,-0.00934
9,TACCGCCA,0.323
10,CTCAAAAG,0.0069
11,CGTATGCC,0.07
12,TCCATTAA,0.109
13,GCGCCAGA,0.135
14,GTATCCAC,-0.0267
15,TTAGCAAA,0.0559
16,AAAGTGCG,0.159
17,ATTCATAG,-0.17
18,CAATTGGC,-0.167
19,CCGGAGCA,0.264
20,ACCGAACA,0.168
21,GCTTGTAC,-0.0129
22,AGCTCTGC,-0.343
23,TGTACAAA,-0.0295
24,AGAGTTAG,-0.129
25,CTGTATAA,-0.0702

row,Sequence,PBM E-score
1,AGCTTGCG,-0.0618
2,AATGTAGA,-0.152
3,CATCCAGC,-0.0401
4,CCATGGCC,-0.0436
5,AGGCGTCC,-0.0957
6,GGCGGAAC,0.25
7,AACAAAAG,-0.054
8,GAGCTAGA,-0.0326
9,GACTCTTA,-0.0543
10,CCCTGAAC,-0.0556
11,CTCTGAGA,-0.193
12,ACAATCAT,-0.252
13,AAGCGAAG,-0.0821
14,ATGTCTTG,-0.0666
15,AGTGAATG,0.137
16,TACGATCA,-0.323
17,GCGCAAGA,-0.138
18,ATAGCGCA,-0.0665
19,CGTGTATA,0.111
20,CTTACTAA,-0.0783
21,GATGAGAC,-0.136
22,CGGGTCAG,0.112
